Measured values from patent US9872922B2, “Anti-EFNA4 antibody-drug conjugates” (PFIZER, INC., priority 2013, dated 2018).

Legend:
[1] = test system: Ovarian-55 (OV55) ovarian cancer PDX; assay: In vivo efficacy, OV55 ovarian cancer PDX; design: species or system NOD/SCID mice (human tumor PDX)
[2] = test system: Ovarian-44 (OV44) ovarian cancer PDX; assay: In vivo efficacy, OV44 ovarian cancer PDX; design: species or system NOD/SCID mice (human tumor PDX)
[3] = test system: Breast-5 (BR5) triple-negative breast cancer (TNBC) PDX; assay: In vivo efficacy, BR5 TNBC PDX; design: species or system NOD/SCID mice (human tumor PDX); settings: for Regression (TTP, Days): BR5 PDX
BR64 = assay: In vivo efficacy, BR64 TNBC Claudin-low tumor model; design: species or system mice; settings: 0.27 mg/kg

B1: huE22-AcBut-CM: huE22 conjugated via lysine residues to AcBut-N-acetyl-γ-calicheamicin dimethyl hydrazide (AcBut-CM) (conjugate)
heavy: QVQLVQSGAEVKKPGASVKVSCKASGYTFTGYYIHWVRQAPGQGLEWMGWIYPGNFNTKYNERFKGRVTMTTDTSTSTAYMELRSLRSDDTAVYYCAREDGSPYYAMDYWGQGTSVTVSS[human IgG1 constant region omitted here]
light: DIVMTQTPLSLSVTPGQPASISCRSSQSLVHSNGNTFLYWYLQKPGQSPQLLIYRVSNRFSGVPDRFSGSGSGTDFTLKISRVEAEDVGVYYCFQATHVPWTFGGGTKVEIKRTVAAPSVFIFPPSDEQLKSGTASVVCLLNNFYPREAKVQWKVDNALQSGNSQESVTEQDSKDSTYSLSSTLTLSKADYEKHKVYACEVTHQGLSSPVTKSFNRGEC
In the case of B1, the “Regression (TTP, Days) or % TGI” value ([1]; 0.018 mg/kg, OV55 PDX) is reported as “No activity”, the mean tumor volume ([1]; 0.09 mg/kg, Day 0) is reported as 208 ± 24 and the mean tumor volume ([1]; 0.09 mg/kg, Day 6) is reported as 198 ± 33. For the same molecule, the mean tumor volume ([1]; 0.09 mg/kg, Day 13) was 109 ± 27, the mean tumor volume ([1]; 0.09 mg/kg, Day 20) was 63 ± 14 and the mean tumor volume ([1]; 0.09 mg/kg, Day 27) was 30 ± 9. It also gave a mean tumor volume ([1]; 0.09 mg/kg, Day 34) of 37 ± 13, a mean tumor volume ([1]; 0.09 mg/kg, Day 42) of 94 ± 37 and a mean tumor volume ([1]; 0.09 mg/kg, Day 48) of 171 ± 62. For the same molecule, the mean tumor volume ([1]; 0.09 mg/kg, Day 55) was 382 ± 142, the mean tumor volume ([1]; 0.09 mg/kg, Day 62) was 579 ± 209 and the mean tumor volume ([1]; 0.09 mg/kg, Day 69) was 980 ± 405. The “Regression (TTP, Days)” value ([1]; 0.09 mg/kg, OV55 PDX) was “Regression (42) Days”, the mean tumor volume ([1]; 0.27 mg/kg, Day 0) was 204 ± 28 and the mean tumor volume ([1]; 0.27 mg/kg, Day 6) was 152 ± 18. The mean tumor volume ([1]; 0.27 mg/kg, Day 13) was 66 ± 13, the mean tumor volume ([1]; 0.27 mg/kg, Day 20) was 35 ± 9 and the mean tumor volume ([1]; 0.27 mg/kg, Day 27) was 5 ± 4. It also gave a mean tumor volume ([1]; 0.27 mg/kg, Day 34) of 0 ± 0, a mean tumor volume ([1]; 0.27 mg/kg, Day 42) of 0 ± 0 and a mean tumor volume ([1]; 0.27 mg/kg, Day 48) of 0 ± 0. For the same molecule, the mean tumor volume ([1]; 0.27 mg/kg, Day 55) was 0 ± 0, the mean tumor volume ([1]; 0.27 mg/kg, Day 69) was 7 ± 7 and the mean tumor volume ([1]; 0.27 mg/kg, Day 76) was 11 ± 11. The mean tumor volume ([1]; 0.27 mg/kg, Day 83) was 24 ± 24, the mean tumor volume ([1]; 0.27 mg/kg, Day 90) was 35 ± 35 and the mean tumor volume ([1]; 0.27 mg/kg, Day 97) was 78 ± 78. It also gave a mean tumor volume ([1]; 0.27 mg/kg, Day 105) of 107 ± 107, a mean tumor volume ([1]; 0.27 mg/kg, Day 108) of 99 ± 99 and a mean tumor volume ([1]; 0.27 mg/kg, Day 121) of 157 ± 157. The mean tumor volume ([1]; 0.27 mg/kg, Day 125) was 253 ± 253, the mean tumor volume ([1]; 0.27 mg/kg, Day 132) was 253 ± 253 and the “Regression (TTP, Days)” value ([1]; 0.27 mg/kg, OV55 PDX) was “Regression (76) Days”. The “effect on tumor growth” value ([1]; 0.036 dose level) was “some delay in tumor growth”, the tumor regression ([1]; 0.27 and 0.09 mg/kg dose levels) was “Tumor regressions were achieved” and the mean tumor volume ([2]; 0.09 mg/kg, Day 11) was 328 ± 39. For the same molecule, the mean tumor volume ([2]; 0.09 mg/kg, Day 18) was 299 ± 29, the mean tumor volume ([2]; 0.09 mg/kg, Day 25) was 313 ± 39 and the mean tumor volume ([2]; 0.09 mg/kg, Day 0) was 148 ± 16. The mean tumor volume ([2]; 0.09 mg/kg, Day 5) was 236 ± 20, the mean tumor volume ([2]; 0.09 mg/kg, Day 32) was 414 ± 50 and the mean tumor volume ([2]; 0.09 mg/kg, Day 39) was 497 ± 44. The mean tumor volume ([2]; 0.09 mg/kg, Day 46) was 610 ± 28, the mean tumor volume ([2]; 0.09 mg/kg, Day 53) was 957 ± 99 and the “% TGI” value ([2]; 0.09 mg/kg, OV44 PDX) was 59% TGI. For the same molecule, the tumor growth delay ([2]; 0.27 mg/kg) was ~50 days, the tumor regression ([2]; 0.27 mg/kg) was “did not regress the tumors” and the mean tumor volume ([2]; 0.27 mg/kg, Day 11) was 250 ± 30. It also gave a mean tumor volume ([2]; 0.27 mg/kg, Day 18) of 162 ± 24, a mean tumor volume ([2]; 0.27 mg/kg, Day 25) of 142 ± 21 and a mean tumor volume ([2]; 0.27 mg/kg, Day 95) of 686 ± 111. The mean tumor volume ([2]; 0.27 mg/kg, Day 0) was 152 ± 17, the mean tumor volume ([2]; 0.27 mg/kg, Day 5) was 249 ± 35 and the mean tumor volume ([2]; 0.27 mg/kg, Day 32) was 137 ± 33. For the same molecule, the mean tumor volume ([2]; 0.27 mg/kg, Day 39) was 114 ± 43, the mean tumor volume ([2]; 0.27 mg/kg, Day 46) was 140 ± 59 and the mean tumor volume ([2]; 0.27 mg/kg, Day 53) was 249 ± 152. For the same molecule, the mean tumor volume ([2]; 0.27 mg/kg, Day 61) was 242 ± 102, the mean tumor volume ([2]; 0.27 mg/kg, Day 67) was 367 ± 143 and the mean tumor volume ([2]; 0.27 mg/kg, Day 74) was 452 ± 140. It also gave a mean tumor volume ([2]; 0.27 mg/kg, Day 81) of 521 ± 130, a mean tumor volume ([2]; 0.27 mg/kg, Day 88) of 619 ± 120 and a mean tumor volume ([2]; 0.27 mg/kg, Day 102) of 830 ± 82. For the same molecule, the “Regression (TTP, Days)” value ([2]; 0.27 mg/kg, OV44 PDX) was “Regression (53) Days”, the “effect on tumor growth” value ([2]; dose levels below 0.27 mg/kg) was “minimal effect” and the “tumor volume ± SEM” value ([3]; 0.09 mg/kg, Day 11) was 209 ± 42 mm^3. For the same molecule, the “tumor volume ± SEM” value ([3]; 0.09 mg/kg, Day 18) was 83 ± 25 mm^3, the “tumor volume ± SEM” value ([3]; 0.09 mg/kg, Day 25) was 30 ± 8 mm^3 and the “tumor volume ± SEM” value ([3]; 0.09 mg/kg, Day 47) was 32 ± 25 mm^3. The “tumor volume ± SEM” value ([3]; 0.09 mg/kg, Day 60) was 159 ± 118 mm^3, the “Regression (TTP, Days)” value ([3]; 0.09 mg/kg) was “Regression (53) Days” and the “tumor volume ± SEM” value ([3]; 0.09 mg/kg, Day 0) was 161 ± 21 mm^3. For the same molecule, the “tumor volume ± SEM” value ([3]; 0.09 mg/kg, Day 7) was 441 ± 57 mm^3, the “tumor volume ± SEM” value ([3]; 0.09 mg/kg, Day 32) was 15 ± 10 mm^3 and the “tumor volume ± SEM” value ([3]; 0.09 mg/kg, Day 39) was 14 ± 9 mm^3. The “tumor volume ± SEM” value ([3]; 0.09 mg/kg, Day 53) was 82 ± 66 mm^3, the “tumor volume ± SEM” value ([3]; 0.09 mg/kg, Day 67) was 318 ± 209 mm^3 and the “tumor volume ± SEM” value ([3]; 0.09 mg/kg, Day 74) was 452 ± 234 mm^3. For the same molecule, the “tumor volume ± SEM” value ([3]; 0.09 mg/kg, Day 81) was 811 ± 362 mm^3, the “tumor volume ± SEM” value ([3]; 0.27 mg/kg, Day 11) was 290 ± 42 mm^3 and the “tumor volume ± SEM” value ([3]; 0.27 mg/kg, Day 18) was 69 ± 7 mm^3. For the same molecule, the “tumor volume ± SEM” value ([3]; 0.27 mg/kg, Day 25) was 34 ± 6 mm^3, the “tumor volume ± SEM” value ([3]; 0.27 mg/kg, Day 47) was 0 ± 0 mm^3 and the “tumor volume ± SEM” value ([3]; 0.27 mg/kg, Day 60) was 0 ± 0 mm^3. For the same molecule, the “tumor volume ± SEM” value ([3]; 0.27 mg/kg, Day 89) was 0 ± 0 mm^3, the “tumor volume ± SEM” value ([3]; 0.27 mg/kg, Day 95) was 0 ± 0 mm^3 and the “tumor volume ± SEM” value ([3]; 0.27 mg/kg, Day 109) was 0 ± 0 mm^3. The “tumor volume ± SEM” value ([3]; 0.27 mg/kg, Day 130) was 0 ± 0 mm^3, the “tumor volume ± SEM” value ([3]; 0.27 mg/kg, Day 144) was 0 ± 0 mm^3 and the “tumor volume ± SEM” value ([3]; 0.27 mg/kg, Day 152) was 0 ± 0 mm^3. The “tumor volume ± SEM” value ([3]; 0.27 mg/kg, Day 155) was 0 ± 0 mm^3, the “tumor volume ± SEM” value ([3]; 0.27 mg/kg, Day 172) was 0 ± 0 mm^3 and the “Regression (TTP, Days)” value ([3]; 0.27 mg/kg) was “Regression (200) Days”. The “tumor volume ± SEM” value ([3]; 0.27 mg/kg, Day 7) was 428 ± 46 mm^3, the “tumor volume ± SEM” value ([3]; 0.27 mg/kg, Day 39) was 0 ± 0 mm^3 and the “tumor volume ± SEM” value ([3]; 0.27 mg/kg, Day 53) was 0 ± 0 mm^3. For the same molecule, the “tumor volume ± SEM” value ([3]; 0.27 mg/kg, Day 67) was 0 ± 0 mm^3, the “tumor volume ± SEM” value ([3]; 0.27 mg/kg, Day 74) was 0 ± 0 mm^3 and the “tumor volume ± SEM” value ([3]; 0.27 mg/kg, Day 81) was 0 ± 0 mm^3. The “tumor volume ± SEM” value ([3]; 0.27 mg/kg, Day 102) was 0 ± 0 mm^3, the “tumor volume ± SEM” value ([3]; 0.27 mg/kg, Day 116) was 0 ± 0 mm^3 and the “tumor volume ± SEM” value ([3]; 0.27 mg/kg, Day 123) was 0 ± 0 mm^3. The “tumor volume ± SEM” value ([3]; 0.27 mg/kg, Day 137) was 0 ± 0 mm^3, the “tumor volume ± SEM” value ([3]; 0.27 mg/kg, Day 168) was 0 ± 0 mm^3 and the “Regression (TTP, Days) or % TGI” value (BR64) was “No activity”.
